# PubChem BioAssay AID1347165 (National Center for Advancing Translational Sciences (NCATS), 2019)
# The whole screen tested about 220,000 compounds, of which about 5,700 (2.6%) were called active. The shares of active, inactive and inconclusive entries below differ from those in the screen. The call rests on the fitted dose curve; in most records, active means well fitted inhibition curve with a large enough effect; inconclusive means small, poorly fitted or top-dose-only effect; inactive means no such curve, though single readings can be large or run the other way. Potencies of inconclusive entries are doubtful fits and often do not repeat.
# Biological target: Lysine-specific demethylase 5B (Homo sapiens) (UniProt Q9UGL1)
# Test: Primary screen for KDM5B Histone Demethylases FDH-coupled qHTS; further: nearly all actives have a fitted effect of over 70% in size; on activity change, negative = inhibition: 0% is about no effect
# Details: FDH-coupled NADH fluorescence (FDH is formaldehyde dehydrogenase); activity change, negative = inhibition: at 57.7 µM (top of the series) unless noted
# How it was run: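 Compound dilutions met 200 nM (final) KDM5BΔAP for 10 min at room temperature before substrate addition. The substrate mix held 12.5 µM H3K4me3 with cofactors 25 µM α-ketoglutarate and 50 µM Fe²⁺. NADH signal gain over 30 min defined activity.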
# Potency means the concentration at half of the fitted maximal effect; tags describe the fitted curve by direction and shape.
# Sequence of UniProt Q9UGL1 (Q9UGL1 whole entry, looked up): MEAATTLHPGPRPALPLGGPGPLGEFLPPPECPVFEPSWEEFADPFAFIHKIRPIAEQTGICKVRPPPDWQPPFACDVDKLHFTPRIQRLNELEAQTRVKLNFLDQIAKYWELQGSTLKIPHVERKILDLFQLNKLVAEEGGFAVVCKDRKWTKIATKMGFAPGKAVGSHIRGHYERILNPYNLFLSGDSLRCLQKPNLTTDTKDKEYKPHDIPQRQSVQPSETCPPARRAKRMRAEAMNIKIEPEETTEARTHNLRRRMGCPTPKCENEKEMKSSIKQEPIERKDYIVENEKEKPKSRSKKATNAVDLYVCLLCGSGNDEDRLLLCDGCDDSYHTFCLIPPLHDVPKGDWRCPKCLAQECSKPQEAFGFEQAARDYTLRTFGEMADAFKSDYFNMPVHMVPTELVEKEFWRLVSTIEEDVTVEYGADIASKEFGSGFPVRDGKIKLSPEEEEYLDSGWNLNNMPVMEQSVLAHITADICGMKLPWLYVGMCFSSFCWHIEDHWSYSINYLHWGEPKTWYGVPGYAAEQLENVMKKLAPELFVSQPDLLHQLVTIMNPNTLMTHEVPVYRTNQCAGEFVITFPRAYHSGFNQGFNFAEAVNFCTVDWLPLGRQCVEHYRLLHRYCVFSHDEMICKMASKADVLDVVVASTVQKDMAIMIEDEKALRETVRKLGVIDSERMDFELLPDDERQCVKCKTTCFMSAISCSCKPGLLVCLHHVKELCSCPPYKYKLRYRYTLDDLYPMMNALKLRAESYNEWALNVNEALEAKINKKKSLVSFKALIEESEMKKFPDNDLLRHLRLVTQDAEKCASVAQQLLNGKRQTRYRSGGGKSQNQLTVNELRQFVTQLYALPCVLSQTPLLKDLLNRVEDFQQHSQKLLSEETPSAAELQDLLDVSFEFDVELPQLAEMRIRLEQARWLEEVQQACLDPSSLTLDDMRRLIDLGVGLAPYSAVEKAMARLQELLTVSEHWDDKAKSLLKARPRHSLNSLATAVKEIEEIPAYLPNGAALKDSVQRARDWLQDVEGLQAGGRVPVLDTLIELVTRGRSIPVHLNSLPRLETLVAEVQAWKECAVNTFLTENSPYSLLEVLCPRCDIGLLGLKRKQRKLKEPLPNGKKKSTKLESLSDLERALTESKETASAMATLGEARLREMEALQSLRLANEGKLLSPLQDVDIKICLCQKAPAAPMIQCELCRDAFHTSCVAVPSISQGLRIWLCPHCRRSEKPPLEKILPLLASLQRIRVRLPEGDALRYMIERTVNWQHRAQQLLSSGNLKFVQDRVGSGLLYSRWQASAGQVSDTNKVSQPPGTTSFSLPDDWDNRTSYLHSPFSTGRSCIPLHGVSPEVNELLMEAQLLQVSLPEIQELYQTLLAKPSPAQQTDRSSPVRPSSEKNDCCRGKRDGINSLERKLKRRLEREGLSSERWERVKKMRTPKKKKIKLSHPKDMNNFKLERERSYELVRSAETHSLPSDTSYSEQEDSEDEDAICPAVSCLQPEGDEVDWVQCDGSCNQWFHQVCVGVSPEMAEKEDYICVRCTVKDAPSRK
SMILES,Potency,"activity change, negative = inhibition"
COc1ccccc1-n1c(=O)n(CC(=O)NC(C)c2ccccc2)c(=O)c2c(C)cc(C)nc21 (stereo not given),inactive,–
Cc1ccc(OCCn2cc(C(=O)c3cccs3)c3ccccc32)cc1,"inconclusive: 17.8 µM [inhibitor, partial curve, poor fit]",–
COc1cccc(/C=C/c2onc(C)c2S(=O)(=O)N2CCC(C(=O)N3CCCCC3)CC2)c1,"inconclusive: 1.41 µM [inhibitor, full curve, poor fit]",–
COc1ccc(OC)c(CN2CCNc3cnc(-c4ccccc4)cc3C2)c1,active: 31.6 µM,–
c1ccc(Nc2cc3c(cn2)CN(Cc2c[nH]c4ccccc24)CCN3)cc1,"inconclusive: 39.8 µM [inhibitor, partial curve, poor fit]",–
CNC(=O)N/C=C(/C#N)C(=O)OC,"inconclusive: 28.2 µM [inhibitor, single point]",–
Cc1ccc(CN2CCSc3ccc(C(=O)NCc4ccc(OC(C)C)cc4)cc32)cc1,"inconclusive: 35.5 µM [inhibitor, partial curve, poor fit]",–
Cc1ccccc1C(=O)NCc1nnc2c(-c3nc(C(C)C)no3)cccn12,"inconclusive: 28.2 µM [inhibitor, partial curve, poor fit]",–
Cc1oc(-c2ccccc2)nc1Cn1cccc(C(F)(F)F)c1=O,inactive,–
COc1ccc(CNC(=O)Cc2c(C)c3cc4c(C)coc4cc3oc2=O)cc1,"inconclusive: 3.55 µM [inhibitor, partial curve, poor fit]",–
COc1ccc(NC(=O)c2ccc3c(c2)N(C)C2CCCCCN2C3=O)cc1 (stereo not given),"inconclusive: 25.1 µM [inhibitor, partial curve, poor fit]",–
COC1CCCN(Cc2c(C(=O)N3CCN(C4CCCCC4)CC3)nc3ccccn23)C1 (stereo not given),"inconclusive: 31.6 µM [inhibitor, partial curve, poor fit]",–
COCCCNC(=O)Cn1c(=O)n(-c2cccc(C)c2)c(=O)c2c1c1cc(C)ccc1n2C,"inconclusive: 7.08 µM [inhibitor, partial curve, poor fit]",–
COc1ccccc1-c1c(C#N)c(N)nc2c1CCC2,"inconclusive: 39.8 µM [inhibitor, single point]",–
O=C(Nc1ccc(OCc2ccccc2)cc1)c1cccc2ccccc12,inactive,–
NC(=O)c1sc2nc3c(cc2c1N)CCCCCC3,"inconclusive: 28.2 µM [inhibitor, partial curve, poor fit]",–
N#Cc1c2n(c(=O)n(CCOc3ccccc3F)c1=O)CCC2,inactive,–
COCc1nncn1C1CCN(S(=O)(=O)c2cccc(C)c2)CC1,inactive,–
COc1ccc2cc(C(=O)NCC3COc4ccccc4O3)c(C)nc2c1 (stereo not given),"inconclusive: 25.1 µM [inhibitor, single point]",–
O=C(Nc1cccc(-c2nc3ccccc3s2)c1)[C@@H]1CCCN1C(=O)c1cccs1,"inconclusive: 22.4 µM [inhibitor, single point]",–
N#CC(C(=O)CN1CCCC1)c1ccccc1 (stereo not given),inactive,–
O=C(c1ccc(Cl)cc1)N1CCCC(c2nn(-c3ccc(F)cc3)c(=O)[nH]2)C1 (stereo not given),inactive,–

SMILES,Potency,"activity change, negative = inhibition"
O=C(NCCN1CCOCC1)C1CC(=O)N(c2n[nH]c3ccccc23)C1 (stereo not given),inactive,–
Cc1cccc(C(=O)N2CCN(Cc3nc(N)c4ccccc4n3)CC2)c1,inactive,–
CCc1nc(NCCCOC)c(C#N)c2c1CCCC2,"inconclusive: 28.2 µM [inhibitor, partial curve, poor fit]",–
Cc1ccc(-n2nc(C)c([C@@H]3C=C[C@@H](NCc4ccc(N(C)C)cc4)C3)c2C)cc1Cl,active: 39.8 µM,–
CCCn1c2ccccc2c2cnn(CC(=O)NCC3CCN(Cc4ccc(F)cc4)CC3)c(=O)c21,"inconclusive: 28.2 µM [inhibitor, partial curve, poor fit]",–
Cc1cc(=O)oc2cc(OCC(=O)Nc3ccc(S(=O)(=O)N(C)C)cc3)ccc12,"inconclusive: 28.2 µM [inhibitor, partial curve, poor fit]",–
Cc1ccc(N2CCN(C(=O)c3cc4ccccc4[nH]3)CC2)cc1,"inconclusive: 20 µM [inhibitor, partial curve, poor fit]",–
COc1cc(F)ccc1-c1nc(-c2c(C)noc2C)cc2cc(C)oc12,"inconclusive: 25.1 µM [inhibitor, partial curve, poor fit]",–
COc1ccccc1CNc1nc(-c2ccco2)nn1C(=O)c1cc(OC)c(OC)c(OC)c1,"inconclusive: 28.2 µM [inhibitor, partial curve, poor fit]",–
Cc1cccc(C)c1NC(=O)CSc1nc2nc(C)c(Br)cc2[nH]1,"inconclusive: 39.8 µM [inhibitor, single point]",–
COc1cc(/C=C(\C#N)c2nc3ccccc3[nH]2)ccc1OCc1ccc(F)cc1,"inconclusive: 15.8 µM [inhibitor, partial curve, poor fit]",–
COc1cc(-c2nc(SCC(=O)Nc3ccc(C)cc3)c(-c3ccc(F)cc3)[nH]2)cc(OC)c1OC,"inconclusive: 14.1 µM [inhibitor, partial curve, poor fit]",–
CN(Cc1ccc(C(F)(F)F)cc1)C(=O)CCc1c[nH]c2ccccc12,inactive,–
CCCN(CCC)CCCNC(=O)c1cnn(-c2ccc(F)cc2)c1-n1cccc1,–,inconclusive: -36.7% [inhibitor]
O=C(Nc1scc(-c2ccc(Br)cc2)c1C(=O)O)c1ccccc1F,"inconclusive: 39.8 µM [inhibitor, single point]",–
C=C(C)CSc1nc2c(c(=O)[nH]c(=O)n2C)n1CCCc1ccccc1,inactive,–
O=C(NCc1ccccc1)c1ccc(-c2csc(C3CC3)n2)cc1,"inconclusive: 20 µM [inhibitor, single point]",–
CC(C)(C)NC(=O)CN(Cc1ccc2c(c1)OCO2)C(=O)CNS(=O)(=O)c1ccc(F)cc1,inactive,–
C[C@@H]1C(=O)O[C@H]2[C@H]1CC[C@@]1(C)Cc3sc(NC(=O)c4c(F)cccc4F)nc3[C@@H](C)[C@H]21,"inconclusive: 22.4 µM [inhibitor, single point]",–
CCc1nc(SC)ncc1C(=O)N1CCN(c2cc(Cl)ccc2C)CC1,"inconclusive: 14.1 µM [inhibitor, partial curve, poor fit]",–
CC(C)c1nc2ccccc2n1CCNC(=O)Cn1nc2c(cc1=O)CCCCC2,"inconclusive: 31.6 µM [inhibitor, partial curve]",–
O=C(c1nc2nc(-c3ccco3)cc(C(F)(F)F)n2n1)N1CCOCC1,"inconclusive: 14.1 µM [inhibitor, partial curve, poor fit]",–

SMILES,Potency,"activity change, negative = inhibition"
COc1cc(CNC(=O)N2CCN(Cc3ccc(Br)s3)CC2)ccc1OC(F)F,inactive,–
c1ccc(C(CNc2ncncn2)N2CCCCCC2)cc1 (stereo not given),"inconclusive: 22.4 µM [inhibitor, partial curve]",–
Cc1noc2c(-c3ccc(N4CCOCC4)cc3)cc(-c3ccccc3)nc12,"inconclusive: 0.891 µM [inhibitor, full curve, poor fit]",–
CCC(c1cnn(C)c1)n1ccnc1-c1ccc(SC)cc1 (stereo not given),"inconclusive: 15.8 µM [inhibitor, partial curve]",–
Nc1ccc(NC(=O)c2cccc(C(=O)Nc3ccc(N)cc3Cl)c2)c(Cl)c1,"inconclusive: 14.1 µM [inhibitor, partial curve, poor fit]",–
CCCCn1c(=N)c(S(=O)(=O)c2ccc(C)cc2)cc2c(=O)n3cc(C)ccc3nc21,"inconclusive: 17.8 µM [inhibitor, partial curve, poor fit]",–
COc1ccccc1CN1CCN(C(=O)CC2CCOCC2)CC1,inactive,–
COc1ccc(-c2ccc3nc(-c4c(F)c(F)cc(F)c4F)oc3c2)c(OC)c1OC,inactive,–
CN(C)C[C@@H]1CN(c2ncccn2)C[C@H]1NC(=O)CCc1ccccc1,active: 28.2 µM,–
CCN1c2cc(C(=O)N3CCN(c4ccccc4F)CC3)ccc2C(=O)N2CCCCC21 (stereo not given),"inconclusive: 22.4 µM [inhibitor, partial curve, poor fit]",–
c1ccc(Oc2ccc(Nc3ncc(-c4cncnc4)c4c3OCC4)cc2)cc1,"inconclusive: 25.1 µM [inhibitor, partial curve, poor fit]",–
CCc1nn2c(=O)cc(COC(=O)c3ccc(NC(=O)CCc4ccccc4)cc3)nc2s1,"inconclusive: 1.58 µM [inhibitor, full curve, poor fit]",–
COc1ncccc1-c1cnc2[nH]cc(CC(=O)N3CCOCC3)c2c1,active: 35.5 µM,–
CC(C)CNc1ccc2c(n1)C(C)(C(=O)NC1CCN(C)CC1)CN(Cc1ccccc1)C2 (stereo not given),inactive,–
COC(=O)[C@@H](NC(=O)c1cnc(C)cn1)C(C)C,inactive,–
CC(=O)NCc1ccc(C(=O)OC(C)C(=O)C23CC4CC(CC(C4)C2)C3)cc1 (stereo not given),inactive,–
Cc1ccc(-c2nnc(Nc3ccc(OC(F)(F)Cl)cc3)c3ccccc23)cc1S(=O)(=O)NC(C)(C)CO,"inconclusive: 22.4 µM [inhibitor, partial curve, poor fit]",–
CC(=O)N1CCc2c(sc3nc(SCC(C)C)n(-c4ccc(C)c(Cl)c4)c(=O)c23)C1,"inconclusive: 8.91 µM [inhibitor, partial curve, poor fit]",–
CN1CCCN(S(=O)(=O)c2cccs2)c2ccccc21,"inconclusive: 12.6 µM [inhibitor, partial curve]",–
O=C1CN(C(=O)CCc2ncc(-c3ccc(Cl)cc3)o2)CCN1,inactive,–
Cc1cc(=O)n(C(C)C(=O)N2CCCc3ccccc32)c2c1c(C)nn2-c1ccccc1 (stereo not given),"inconclusive: 15.8 µM [inhibitor, partial curve, poor fit]",–
